# Reference: patent publication US20110039874A1 (Northeastern University, priority 2007, published 2011)
# Target: T1, Monoacylglycerol lipase (MGL) (Rattus norvegicus, UniProt Q8R431)
# T1 sequence (Q8R431 1-303): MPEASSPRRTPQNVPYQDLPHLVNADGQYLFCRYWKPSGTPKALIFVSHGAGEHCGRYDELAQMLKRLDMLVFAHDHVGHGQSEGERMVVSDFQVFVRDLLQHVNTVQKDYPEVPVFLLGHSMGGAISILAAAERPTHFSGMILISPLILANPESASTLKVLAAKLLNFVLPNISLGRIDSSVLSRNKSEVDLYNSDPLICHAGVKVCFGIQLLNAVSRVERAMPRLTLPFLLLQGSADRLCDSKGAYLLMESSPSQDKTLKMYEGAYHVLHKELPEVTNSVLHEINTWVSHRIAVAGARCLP
# Assay: not given
# Conditions: 100 µM
row,inhibition [%],SMILES
1,65,"O=C(c1cccnc1)C(F)(F)CCCCOc1cccc(OCc2ccccc2)c1 [Compound 89.11, 2,2-Difluoro-6-[3-(benzyloxy)phenoxy]-1-(pyridin-3-yl)-hexan-1-one]"
2,76,"O=C(CCCCCCOc1ccccc1)C(F)(F)c1ccccn1 [Compound 96.1, 1,1-Difluoro-8-phenoxy-1-(pyridin-2-yl)octan-2-one]"
3,91,"O=C(c1cccc(Br)n1)C(F)(F)c1ccc(-c2ccccc2)cc1 [Compound 93.7, 2-(Biphenyl-4-yl)-1-(6-bromopyridin-2-yl)-2,2-difluoroethanone]"

# Second part, the compound before the results:
row,SMILES,inhibition [%]
1,"O=C1c2ccccc2S(=O)(=O)N1CCCCOc1ccc(OCc2ccccc2)cc1 [Compound 83.3, N-[4-(4-Benzyloxy-phenoxy)-butyl]saccharin]",1
2,"O=C(CCCCCc1ccccc1)C(F)(F)F [Compound 27.3, 1,1,1-Trifluoro-7-phenyl-2-heptanone]",36
3,CC(Cl)OC(=O)OCCCCOc1cccc(OCc2ccccc2)c1 (stereo not drawn) [Compound 46.3],35
4,OC(O)(c1ccccn1)C(F)(F)CCCCOc1ccccc1 [89.9 Hydrate form],69
5,O=C(Nc1ccc(Cl)cc1Cl)OC12CC3CC(CC(C3)C1)C2 [Compound 53.11],89
6,COCC(=O)NCc1ccc(Br)cc1 [Compound 57.1],44
7,"O=C(CCCCOc1cccc(O)c1)C(F)(F)F [Compound 24.6, 1,1,1-Trifluoro-6-[3-(hydroxy)phenoxy]-2-hexanone]",9
8,"CCCCCCc1ccc(O)c(-c2ccc(C(=O)C(F)(F)F)cc2)c1OC [Compound 40.3, 2,2,2-Trifluoro-1-(3′-hexyl-6′-hydroxy-2′-methoxybiphenyl-4-yl)ethanone]",81
9,"O=C(CCCCOc1ccccc1OCc1ccccc1)C(F)(F)F [Compound 23.9, 1,1,1-Trifluoro-6-[2-(Benzyloxy)phenoxy]-2-hexanone]",47
10,"CCOC(=O)C(=O)CCCCCOc1ccccc1 [Compound 87.4, 2-Oxo-7-phenoxy-heptanoic acid ethyl ester]",66
11,CC(C)(C)c1ccc(NC(=O)OC23CC4CC(CC(C4)C2)C3)cc1 [Compound 53.7],34
12,"O=C(Nc1ccc(Br)cc1)OC1CCCCC1 [Compound 48.1, (4-Bromophenyl)carbamic acid cyclohexyl ester]",98
13,COc1cc(-c2ccc(NC(=O)OC34CC5CC(CC(C5)C3)C4)cc2)cc(OC)c1OC [Compound 53.33],21
14,"O=C(CCCOc1ccccc1OCc1ccccc1)C(F)(F)F [Compound 23.8, 1,1,1-Trifluoro-5-[2-(Benzyloxy)phenoxy]-2-pentanone]",20
15,O=C(Nc1ccc(C(F)(F)F)cc1)OC12CC3CC(CC(C3)C1)C2 [Compound 53.8],54
16,"O=C(CCCCOc1ccc(O)cc1)C(F)(F)F [Compound 24.2, 1,1,1-Trifluoro-6-[4-(hydroxy)phenoxy]-2-hexanone]",21
17,O=C(Nc1ccc(-c2ccccc2)cc1)OC1C2CC3CC(C2)CC1C3 (stereo not drawn) [Compound 53.35],78
18,O=C(Nc1ccc(Br)cc1)OCc1cccc(Br)n1 [Compound 48.7],55

# Target: T1, Monoacylglycerol lipase (MGL)
# Assay: biochemical
# Conditions: not given
IC50 [nM],Ki [nM],SMILES
1690,420,"Cc1nnc(C(=O)C(F)(F)c2ccc(Br)cc2)o1 [Compound 93.5, 2-(4-Bromophenyl)-2,2-difluoro-1-(5-methyl-1,3,4-oxadiazol-2-yl)ethanone]"
17900,4500,CC(=O)C(F)(F)CCCCOc1cccc(OCc2ccccc2)c1 [Compound 89.1]
72,,Cc1nnc(C(=O)C(F)(F)CCCCOc2cccc(OCc3ccccc3)c2)o1 [Compound 89.13]
71,17,"Cc1nnc(C(=O)C(F)(F)CCCCCCOc2ccccc2)o1 [Compound 89.7, 2,2-Difluoro-8-phenoxy-1-(5-methyl-1,3,4-oxadiazol-2-yl)-octan-1-one]"
51600,12900,"CCOC(=O)C(=O)c1ccc(-c2ccccc2)cc1 [Compound 91.1, Ethyl 2-(biphenyl-4-yl)-2-oxoacetate]"
